In the supplement of paper PMC8728848:
This is one part of the list.

What was measured:
Assay in all cases: glycan array binding signal (z-score within array); higher = stronger binding
Details in all cases: glycan notation: IUPAC condensed, linker removed
[1] = target: Fuc(a1-3)[Gal(b1-4)]GlcNAc(b1-2)Man(a1-3)[Fuc(a1-3)[Gal(b1-4)]GlcNAc(b1-2)Man(a1-6)]Man(b1-4)GlcNAc(b1-4)[Fuc(a1-6)]GlcNAc
Summary of the method: (§1)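 Glycan array data came from 3228 arrays in the Consortium for Functional Glycomics database, and only arrays with an available protein sequence were kept. Glycan names were put into IUPAC-condensed notation, and columns mapping to the same glycan were averaged. The binding signal is a within-array Z-score, averaged across arrays of one protein sequence run at different concentrations or buffers and across linkers. A negative Z-score can be read as non-binding.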

[2] = target: Fuc(a1-3)[Gal(b1-4)]GlcNAc(b1-3)Gal(b1-3)[Fuc(a1-4)]GlcNAc
Summary of the method: as §1

[3] = target: Fuc(a1-3)[Gal(b1-4)]GlcNAc(b1-3)GalNAc
Summary of the method: as §1

[4] = target: Fuc(a1-3)[Gal(b1-4)]GlcNAc(b1-4)Gal(b1-4)[Fuc(a1-3)]GlcNAc
Summary of the method: as §1

[5] = target: Fuc(a1-3)[Gal(b1-4)]GlcNAc(b1-4)Gal(b1-4)[Fuc(a1-3)]GlcNAc(b1-4)Gal(b1-4)[Fuc(a1-3)]GlcNAc
Summary of the method: as §1

[6] = target: Fuc(a1-3)[Gal(b1-4)]GlcNAc(b1-6)GalNAc
Summary of the method: as §1

[7] = target: Fuc(a1-3)[Gal(b1-4)]GlcNAc(b1-6)[Gal(b1-3)GlcNAc(b1-3)]Gal(b1-4)Glc
Summary of the method: as §1

[8] = target: Fuc(a1-3)[Gal(b1-4)]GlcNAc(b1-6)[Neu5Ac(a2-3)Gal(b1-3)]GalNAc
Summary of the method: as §1

[9] = target: Fuc(a1-3)[Gal(b1-4)]GlcNAc6S
Summary of the method: as §1

[10] = target: Fuc(a1-3)[Gal3S(b1-4)]GlcNAc
Summary of the method: as §1

[11] = target: Fuc(a1-3)[Gal3S(b1-4)]GlcNAc6S
Summary of the method: as §1

[12] = target: Fuc(a1-3)[GalNAc(b1-4)]GlcNAc
Summary of the method: as §1

Fuc(a1-4)GlcNAc = target: Fuc(a1-4)GlcNAc
Summary of the method: as §1

Fuc(b1-3)GlcNAc = target: Fuc(b1-3)GlcNAc
Summary of the method: as §1

Gal(a1-2)Gal = target: Gal(a1-2)Gal
Summary of the method: as §1

Gal(a1-3)Gal = target: Gal(a1-3)Gal
Summary of the method: as §1

Gal(a1-3)Gal(b1-3)GlcNAc = target: Gal(a1-3)Gal(b1-3)GlcNAc
Summary of the method: as §1

[13] = target: Gal(a1-3)Gal(b1-3)GlcNAc(b1-2)Man(a1-3)[Gal(a1-3)Gal(b1-3)GlcNAc(b1-2)Man(a1-6)]Man(b1-4)GlcNAc(b1-4)GlcNAc
Summary of the method: as §1

[14] = target: Gal(a1-3)Gal(b1-3)GlcNAc(b1-3)GalNAc
Summary of the method: as §1

[15] = target: Gal(a1-3)Gal(b1-3)[Fuc(a1-4)]GlcNAc(b1-2)Man(a1-3)[Gal(a1-3)Gal(b1-3)[Fuc(a1-4)]GlcNAc(b1-2)Man(a1-6)]Man(b1-4)GlcNAc(b1-4)GlcNAc
Summary of the method: as §1

Gal(a1-3)Gal(b1-4)Glc = target: Gal(a1-3)Gal(b1-4)Glc
Summary of the method: as §1

Gal(a1-3)Gal(b1-4)GlcNAc = target: Gal(a1-3)Gal(b1-4)GlcNAc
Summary of the method: as §1

[16] = target: Gal(a1-3)Gal(b1-4)GlcNAc(b1-3)GalNAc
Summary of the method: as §1

[17] = target: Gal(a1-3)Gal(b1-4)[Fuc(a1-3)]GlcNAc
Summary of the method: as §1

[18] = target: Gal(a1-3)Gal(b1-4)[Fuc(a1-3)]GlcNAc(b1-2)Man(a1-3)[Gal(a1-3)Gal(b1-4)[Fuc(a1-3)]GlcNAc(b1-2)Man(a1-6)]Man(b1-4)GlcNAc(b1-4)GlcNAc
Summary of the method: as §1

Gal(a1-3)GalNAc = target: Gal(a1-3)GalNAc
Summary of the method: as §1

[19] = target: Gal(a1-3)[Gal(a1-4)]Gal(b1-4)GlcNAc
Summary of the method: as §1

[20] = target: Gal(a1-4)Gal(b1-3)GlcNAc(b1-2)Man(a1-3)[Gal(a1-4)Gal(b1-3)GlcNAc(b1-2)Man(a1-6)]Man(b1-4)GlcNAc(b1-4)GlcNAc
Summary of the method: as §1

Gal(a1-4)Gal(b1-4)Glc = target: Gal(a1-4)Gal(b1-4)Glc
Summary of the method: as §1

Gal(a1-4)Gal(b1-4)GlcNAc = target: Gal(a1-4)Gal(b1-4)GlcNAc
Summary of the method: as §1

[21] = target: Gal(a1-4)Gal(b1-4)GlcNAc(b1-2)Man(a1-3)[Gal(a1-4)Gal(b1-4)GlcNAc(b1-2)Man(a1-6)]Man(b1-4)GlcNAc(b1-4)GlcNAc
Summary of the method: as §1

[22] = target: Gal(a1-4)Gal(b1-4)GlcNAc(b1-3)Gal(b1-4)Glc
Summary of the method: as §1

Gal(a1-4)GlcNAc = target: Gal(a1-4)GlcNAc
Summary of the method: as §1

Gal(a1-6)Glc = target: Gal(a1-6)Glc
Summary of the method: as §1

Gal(b1-2)Gal = target: Gal(b1-2)Gal
Summary of the method: as §1

Gal(b1-3)Gal = target: Gal(b1-3)Gal
Summary of the method: as §1

Gal(b1-3)Gal(b1-4)GlcNAc = target: Gal(b1-3)Gal(b1-4)GlcNAc
Summary of the method: as §1

B1: AFL (Aspergillus fumigatus), Q4WW81 (protein)
chain: STPGAQQVLFRTGIAAVNLTNHLRVYFQDVYGSIRESLYEGSWANGTEKNVIGNAKLGSPVAATSKELKHIRVYTLTEGNTLQEFAYDSGTGWYNGGLGGAKFQVAPYSRIAAVFLAGTDALQLRIYAQKPDNTIQEYMWNGDGWKEGTNLGGALPGTGIGATSFRYTDYNGPSIRIWFQTDDLKLVQRAYDPHKGWYPDLVTIFDRAPPRTAIAATSFGAGNSSIYMRIYFVNSDNTIWQVCWDHGKGYHDKGTITPVIQGSEVAIISWGSFANNGPDLRLYFQNGTYISAVSEWVWNRAHGSQLGRSALPPA
Question: How did the “glycan array binding signal (z-score)” value [1] turn out when B1 was run?
Answer: Its value is -0.278.

Question: And the “glycan array binding signal (z-score)” value [2]?
Answer: Its value is 1.55.

Question: What about the “glycan array binding signal (z-score)” value [3] of the same binder?
Answer: The value was -0.002.

Question: What about the “glycan array binding signal (z-score)” value [4] of the same binder?
Answer: The value was 1.54.

Question: What about the “glycan array binding signal (z-score)” value [5] of the same binder?
Answer: Its value is 2.98.

Question: What about the “glycan array binding signal (z-score)” value [6] of the same binder?
Answer: The value was -0.368.

Question: And the “glycan array binding signal (z-score)” value [7]?
Answer: Its value is 0.549.

Question: And the “glycan array binding signal (z-score)” value [8]?
Answer: Its value is -0.345.

Question: And the “glycan array binding signal (z-score)” value [9]?
Answer: The value was 1.12.

Question: What about the “glycan array binding signal (z-score)” value [10] of the same binder?
Answer: The value was 0.994.

Question: What about the “glycan array binding signal (z-score)” value [11] of the same binder?
Answer: The value was 1.17.

Question: And the “glycan array binding signal (z-score)” value [12]?
Answer: Its value is 1.14.

Question: What about the “glycan array binding signal (z-score)” value (Fuc(a1-4)GlcNAc) of the same binder?
Answer: The value was 3.56.

Question: And the “glycan array binding signal (z-score)” value (Fuc(b1-3)GlcNAc)?
Answer: The value was 2.98.

Question: What about the “glycan array binding signal (z-score)” value (Gal(a1-2)Gal) of the same binder?
Answer: The value was -0.372.

Question: What about the “glycan array binding signal (z-score)” value (Gal(a1-3)Gal) of the same binder?
Answer: Its value is -0.385.

Question: And the “glycan array binding signal (z-score)” value (Gal(a1-3)Gal(b1-3)GlcNAc)?
Answer: The value was -0.384.

Question: What about the “glycan array binding signal (z-score)” value [13] of the same binder?
Answer: The value was -0.373.

Question: What about the “glycan array binding signal (z-score)” value [14] of the same binder?
Answer: Its value is -0.373.

Question: And the “glycan array binding signal (z-score)” value [15]?
Answer: The value was -0.371.

Question: And the “glycan array binding signal (z-score)” value (Gal(a1-3)Gal(b1-4)Glc)?
Answer: Its value is -0.38.

Question: And the “glycan array binding signal (z-score)” value (Gal(a1-3)Gal(b1-4)GlcNAc)?
Answer: Its value is -0.38.

Question: And the “glycan array binding signal (z-score)” value [16]?
Answer: The value was -0.39.

Question: And the “glycan array binding signal (z-score)” value [17]?
Answer: Its value is 0.057.

Question: And the “glycan array binding signal (z-score)” value [18]?
Answer: The value was -0.087.

Question: And the “glycan array binding signal (z-score)” value (Gal(a1-3)GalNAc)?
Answer: Its value is -0.382.

Question: And the “glycan array binding signal (z-score)” value [19]?
Answer: Its value is -0.382.

Question: What about the “glycan array binding signal (z-score)” value [20] of the same binder?
Answer: The value was -0.379.

Question: And the “glycan array binding signal (z-score)” value (Gal(a1-4)Gal(b1-4)Glc)?
Answer: The value was -0.381.

Question: And the “glycan array binding signal (z-score)” value (Gal(a1-4)Gal(b1-4)GlcNAc)?
Answer: The value was -0.383.

Question: And the “glycan array binding signal (z-score)” value [21]?
Answer: Its value is -0.385.

Question: And the “glycan array binding signal (z-score)” value [22]?
Answer: The value was -0.381.

Question: And the “glycan array binding signal (z-score)” value (Gal(a1-4)GlcNAc)?
Answer: The value was -0.385.

Question: And the “glycan array binding signal (z-score)” value (Gal(a1-6)Glc)?
Answer: The value was -0.389.

Question: And the “glycan array binding signal (z-score)” value (Gal(b1-2)Gal)?
Answer: The value was -0.383.

Question: What about the “glycan array binding signal (z-score)” value (Gal(b1-3)Gal) of the same binder?
Answer: The value was -0.394.

Question: What about the “glycan array binding signal (z-score)” value (Gal(b1-3)Gal(b1-4)GlcNAc) of the same binder?
Answer: Its value is -0.388.
